# From the supplement of paper PMC10037445
# Whole data set: some 2,900 compounds, median “NF-kB SEAP reporter activity, fold change vs agonist alone” near 0.99, cut for the highest 2% near 2.6. Some of the results follow.
# What was measured:
# RAW-Dual [1] = assay: NF-kB SEAP reporter activity, fold change vs agonist alone; cytotoxicity flag (confluency mask): not cytotoxic; higher = enhanced NF-kB activity
# Outline: (§1)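 RAW-Dual macrophages (50,000 cells/well in DMEM, 384-well plates) received 50 nL of library stock by pin tool, then a PRR agonist 1 h later, and were kept at 37 °C, 5% CO2. After 20 hours, supernatant was read for IRF by QuantiLuc luminescence and for NF-κB by QuantiBlue absorbance at 620 nm. Reporter activity is fold change over agonist-alone wells. Cytotoxic wells had IncuCyte confluency below 70% of agonist controls in both mask sets.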
# RAW-Dual [2] = assay: NF-kB SEAP reporter activity, fold change vs agonist alone; higher = enhanced NF-kB activity
# Outline: as §1
# RAW-Dual [3] = assay: NF-kB SEAP reporter activity, fold change vs agonist alone; cytotoxicity flag (confluency mask): cytotoxic (confluency <70% of control); higher = enhanced NF-kB activity
# Outline: as §1
# [4] = agonist: ODN 1826 (TLR9) 0.5 ug/mL
# [5] = agonist: Pam2CSK4 (TLR2/6) 0.1 ug/mL
# [6] = agonist: Pam3CSK4 (TLR2/1) 0.1 ug/mL
# [7] = library stock concentration (final ~1000-fold dilution): 10 mM, cytotoxicity flag (confluency mask): not cytotoxic, agonist: Imiquimod (TLR7) […]
# [8] = library stock concentration (final ~1000-fold dilution): 10 mM, cytotoxicity flag (confluency mask): not cytotoxic, agonist: MPLA (TLR4) […]
structure (smiles),measurement,setting,value
CC1CCOC2Cn3cc(C(=O)NCc4ccc(F)cc4F)c(=O)c(O)c3C(=O)N12 (stereo not drawn) (library stock concentration (final ~1000-fold dilution): 10 mM),NF-kB SEAP reporter activity,RAW-Dual [1]; agonist: LPS (TLR4) 0.1 ug/mL,0.989
same,NF-kB SEAP reporter activity,RAW-Dual [1]; [4],0.999
same,NF-kB SEAP reporter activity,RAW-Dual [1]; [5],1.09
same,NF-kB SEAP reporter activity,RAW-Dual [1]; [6],0.921
CC1CCOC2Cn3cc(C(=O)NCc4ccc(F)cc4F)c(=O)c(O)c3C(=O)N12 (stereo not drawn),NF-kB SEAP reporter activity,"RAW-Dual [2]; library stock concentration (final ~1000-fold dilution): 2 mM, cytotoxicity flag (confluency mask): not cytotoxic, agonist: MPLA (TLR4) […]",0.994
same,NF-kB SEAP reporter activity,RAW-Dual [2]; [7],1.18
same,NF-kB SEAP reporter activity,RAW-Dual [2]; [8],0.999
CC1CCOC2Cn3cc(C(=O)NCc4ccc(F)cc4F)c(=O)c(O)c3C(=O)N12 (stereo not drawn) (library stock concentration (final ~1000-fold dilution): 2 mM),NF-kB SEAP reporter activity,RAW-Dual [1]; agonist: LPS (TLR4) 0.1 ug/mL,1.23
same,NF-kB SEAP reporter activity,RAW-Dual [1]; [4],0.967
same,NF-kB SEAP reporter activity,RAW-Dual [1]; [5],0.958
same,NF-kB SEAP reporter activity,RAW-Dual [1]; [6],0.873
CCOc1ccc(Cc2cc(C3OC(SC)C(O)C(O)C3O)ccc2Cl)cc1 (stereo not drawn),NF-kB SEAP reporter activity,RAW-Dual [2]; [7],1.19
same,NF-kB SEAP reporter activity,RAW-Dual [2]; [8],1.17
CCOc1ccc(Cc2cc(C3OC(SC)C(O)C(O)C3O)ccc2Cl)cc1 (stereo not drawn) (library stock concentration (final ~1000-fold dilution): 10 mM),NF-kB SEAP reporter activity,RAW-Dual [1]; agonist: LPS (TLR4) 0.1 ug/mL,1.2
same,NF-kB SEAP reporter activity,RAW-Dual [1]; [4],1.13
same,NF-kB SEAP reporter activity,RAW-Dual [1]; [5],0.862
same,NF-kB SEAP reporter activity,RAW-Dual [1]; [6],1.41
COc1cc(-c2ccc(N=Nc3ccc4c(S(=O)(=O)O)cc(S(=O)(=O)O)c(N)c4c3O)c(OC)c2)ccc1N=Nc1ccc2c(S(=O)(=O)O)cc(S(=O)(=O)O)c(N)c2c1O,NF-kB SEAP reporter activity,RAW-Dual [2]; [7],0.656
same,NF-kB SEAP reporter activity,RAW-Dual [2]; [8],1.08
COc1cc(-c2ccc(N=Nc3ccc4c(S(=O)(=O)O)cc(S(=O)(=O)O)c(N)c4c3O)c(OC)c2)ccc1N=Nc1ccc2c(S(=O)(=O)O)cc(S(=O)(=O)O)c(N)c2c1O (library stock concentration (final ~1000-fold dilution): 10 mM),NF-kB SEAP reporter activity,RAW-Dual [1]; agonist: LPS (TLR4) 0.1 ug/mL,0.969
same,NF-kB SEAP reporter activity,RAW-Dual [1]; [4],0.775
same,NF-kB SEAP reporter activity,RAW-Dual [1]; [5],1.12
same,NF-kB SEAP reporter activity,RAW-Dual [1]; [6],0.938
CCN(CC)CCCC(C)Nc1nc(C)cc(Nc2ccc3nc(C)cc(N)c3c2)n1.Cl.Cl.Cl (stereo not drawn) (library stock concentration (final ~1000-fold dilution): 10 mM),NF-kB SEAP reporter activity,RAW-Dual [1]; agonist: LPS (TLR4) 0.1 ug/mL,1.11
same,NF-kB SEAP reporter activity,RAW-Dual [1]; [4],1.1
same,NF-kB SEAP reporter activity,RAW-Dual [1]; [5],1.16
same,NF-kB SEAP reporter activity,RAW-Dual [1]; [6],0.949
CCN(CC)CCCC(C)Nc1nc(C)cc(Nc2ccc3nc(C)cc(N)c3c2)n1.Cl.Cl.Cl (stereo not drawn),NF-kB SEAP reporter activity,RAW-Dual [2]; [7],1
same,NF-kB SEAP reporter activity,RAW-Dual [2]; [8],1.16
Cl.N=C(N)NCCCCC(N)C(=O)O (stereo not drawn),NF-kB SEAP reporter activity,"RAW-Dual [2]; library stock concentration (final ~1000-fold dilution): 10 mM water, cytotoxicity flag (confluency mask): not cytotoxic, agonist: MPLA (TLR4) […]",1.08
Cl.N=C(N)NCCCCC(N)C(=O)O (stereo not drawn) (library stock concentration (final ~1000-fold dilution): 10 mM water),NF-kB SEAP reporter activity,RAW-Dual [1]; agonist: LPS (TLR4) 0.1 ug/mL,1.17
same,NF-kB SEAP reporter activity,RAW-Dual [1]; [4],1.12
same,NF-kB SEAP reporter activity,RAW-Dual [1]; [5],1.21
same,NF-kB SEAP reporter activity,RAW-Dual [1]; [6],0.923
CC(C(=O)Nc1ccc(Cl)cc1)C1CCC(c2ccnc3ccc(F)cc23)CC1 (stereo not drawn),NF-kB SEAP reporter activity,RAW-Dual [2]; [7],1.51
same,NF-kB SEAP reporter activity,RAW-Dual [2]; [8],1.55
CC(C(=O)Nc1ccc(Cl)cc1)C1CCC(c2ccnc3ccc(F)cc23)CC1 (stereo not drawn) (library stock concentration (final ~1000-fold dilution): 10 mM),NF-kB SEAP reporter activity,RAW-Dual [1]; agonist: LPS (TLR4) 0.1 ug/mL,0.974
same,NF-kB SEAP reporter activity,RAW-Dual [1]; [4],1.05
same,NF-kB SEAP reporter activity,RAW-Dual [1]; [5],0.52
same,NF-kB SEAP reporter activity,RAW-Dual [1]; [6],0.738
COc1cc2c(cc1OC)C(=O)C(CC1CCN(Cc3ccccc3)CC1)C2 (stereo not drawn),NF-kB SEAP reporter activity,RAW-Dual [2]; [8],1.14
COc1cc2c(cc1OC)C(=O)C(CC1CCN(Cc3ccccc3)CC1)C2 (stereo not drawn) (library stock concentration (final ~1000-fold dilution): 10 mM),NF-kB SEAP reporter activity,RAW-Dual [1]; agonist: LPS (TLR4) 0.1 ug/mL,0.889
same,NF-kB SEAP reporter activity,RAW-Dual [1]; [4],1.27
same,NF-kB SEAP reporter activity,RAW-Dual [1]; [5],0.995
same,NF-kB SEAP reporter activity,RAW-Dual [1]; [6],0.885
Cc1cc(N2CCCCC2)nc2ccccc12,NF-kB SEAP reporter activity,RAW-Dual [2]; [7],0.896
same,NF-kB SEAP reporter activity,RAW-Dual [2]; [8],1.21
Cc1cc(N2CCCCC2)nc2ccccc12 (library stock concentration (final ~1000-fold dilution): 10 mM),NF-kB SEAP reporter activity,RAW-Dual [1]; agonist: LPS (TLR4) 0.1 ug/mL,1.39
same,NF-kB SEAP reporter activity,RAW-Dual [1]; [4],1.05
same,NF-kB SEAP reporter activity,RAW-Dual [1]; [5],1.08
same,NF-kB SEAP reporter activity,RAW-Dual [1]; [6],1.36
C[C@@H](O)CCOC(=O)C[C@@H](C)O (library stock concentration (final ~1000-fold dilution): 10 mM),NF-kB SEAP reporter activity,RAW-Dual [1]; agonist: LPS (TLR4) 0.1 ug/mL,0.864
same,NF-kB SEAP reporter activity,RAW-Dual [1]; [4],0.931
same,NF-kB SEAP reporter activity,RAW-Dual [1]; [5],0.907
same,NF-kB SEAP reporter activity,RAW-Dual [1]; [6],0.844
C[C@@H](O)CCOC(=O)C[C@@H](C)O,NF-kB SEAP reporter activity,RAW-Dual [2]; [7],0.899
same,NF-kB SEAP reporter activity,RAW-Dual [2]; [8],1.02
Cc1cc(C)cc(Oc2ccc(CNC(=O)C(C)N)cc2C)c1 (stereo not drawn),NF-kB SEAP reporter activity,RAW-Dual [2]; [7],1.24
same,NF-kB SEAP reporter activity,RAW-Dual [2]; [8],1.3
Cc1cc(C)cc(Oc2ccc(CNC(=O)C(C)N)cc2C)c1 (stereo not drawn) (library stock concentration (final ~1000-fold dilution): 10 mM),NF-kB SEAP reporter activity,RAW-Dual [1]; agonist: LPS (TLR4) 0.1 ug/mL,1.3
same,NF-kB SEAP reporter activity,RAW-Dual [1]; [4],0.9
same,NF-kB SEAP reporter activity,RAW-Dual [1]; [5],0.484
same,NF-kB SEAP reporter activity,RAW-Dual [1]; [6],0.732
O=C(O)CCc1c[nH]c2ccccc12 (library stock concentration (final ~1000-fold dilution): 10 mM),NF-kB SEAP reporter activity,RAW-Dual [1]; agonist: LPS (TLR4) 0.1 ug/mL,1.08
same,NF-kB SEAP reporter activity,RAW-Dual [1]; [4],1.06
same,NF-kB SEAP reporter activity,RAW-Dual [1]; [5],1.03
same,NF-kB SEAP reporter activity,RAW-Dual [1]; [6],0.898
O=C(O)CCc1c[nH]c2ccccc12,NF-kB SEAP reporter activity,RAW-Dual [2]; [7],0.934
same,NF-kB SEAP reporter activity,RAW-Dual [2]; [8],0.964
CC1(COc2ccc3c(c2)ncn3-c2ccc3cccc(N4CCC(N)CC4)c3n2)COC1 (library stock concentration (final ~1000-fold dilution): 10 mM),NF-kB SEAP reporter activity,RAW-Dual [3]; agonist: LPS (TLR4) 0.1 ug/mL,0.769
same,NF-kB SEAP reporter activity,RAW-Dual [3]; [4],1.59
same,NF-kB SEAP reporter activity,RAW-Dual [3]; [5],1.81
same,NF-kB SEAP reporter activity,RAW-Dual [3]; [6],1.6
CC1(COc2ccc3c(c2)ncn3-c2ccc3cccc(N4CCC(N)CC4)c3n2)COC1,NF-kB SEAP reporter activity,"RAW-Dual [2]; library stock concentration (final ~1000-fold dilution): 10 mM, cytotoxicity flag (confluency mask): cytotoxic (confluency <70% of control), agonist: Imiquimod (TLR7) […]",2.9
same,NF-kB SEAP reporter activity,"RAW-Dual [2]; library stock concentration (final ~1000-fold dilution): 10 mM, cytotoxicity flag (confluency mask): cytotoxic (confluency <70% of control), agonist: MPLA (TLR4) […]",1.43
COc1ccccc1-c1cc(Nc2cccc(CS(N)(=O)=O)c2)ncn1,NF-kB SEAP reporter activity,RAW-Dual [2]; [8],2.59
COc1ccccc1-c1cc(Nc2cccc(CS(N)(=O)=O)c2)ncn1 (library stock concentration (final ~1000-fold dilution): 10 mM),NF-kB SEAP reporter activity,RAW-Dual [1]; agonist: LPS (TLR4) 0.1 ug/mL,2.67
COc1ccc(S(=O)(=O)Nc2nc(-c3cccc([N+](=O)[O-])c3)cs2)cc1OC (library stock concentration (final ~1000-fold dilution): 10 mM),NF-kB SEAP reporter activity,RAW-Dual [1]; agonist: LPS (TLR4) 0.1 ug/mL,0.818
same,NF-kB SEAP reporter activity,RAW-Dual [1]; [4],0.822
same,NF-kB SEAP reporter activity,RAW-Dual [1]; [5],1
same,NF-kB SEAP reporter activity,RAW-Dual [1]; [6],1.02
COc1ccc(S(=O)(=O)Nc2nc(-c3cccc([N+](=O)[O-])c3)cs2)cc1OC,NF-kB SEAP reporter activity,RAW-Dual [2]; [7],0.988
same,NF-kB SEAP reporter activity,RAW-Dual [2]; [8],0.991
